The record followed here is article PMC6919601, “Identification of Plasmodium dipeptidyl aminopeptidase allosteric inhibitors by high throughput screening” (PLoS ONE, 2019).

About 230 (0.21%) of roughly 110,000 compounds showed an effect of 50% or more. The list shows a part of the results.
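Note: 30 min substrate incubation versus DMSO and 10 µM JCP410 controls.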

The target of the test is DPAP1 (Plasmodium falciparum, UniProt Q8IIJ9). Briefly: primary screen, percent inhibition; read by cleavage of a fluorogenic dipeptide substrate; higher = more effect of the substance. Also on record: species or system P. falciparum D10 trophozoite lysates; single well.
DPAP1, sequence (Q8IIJ9 whole entry, looked up): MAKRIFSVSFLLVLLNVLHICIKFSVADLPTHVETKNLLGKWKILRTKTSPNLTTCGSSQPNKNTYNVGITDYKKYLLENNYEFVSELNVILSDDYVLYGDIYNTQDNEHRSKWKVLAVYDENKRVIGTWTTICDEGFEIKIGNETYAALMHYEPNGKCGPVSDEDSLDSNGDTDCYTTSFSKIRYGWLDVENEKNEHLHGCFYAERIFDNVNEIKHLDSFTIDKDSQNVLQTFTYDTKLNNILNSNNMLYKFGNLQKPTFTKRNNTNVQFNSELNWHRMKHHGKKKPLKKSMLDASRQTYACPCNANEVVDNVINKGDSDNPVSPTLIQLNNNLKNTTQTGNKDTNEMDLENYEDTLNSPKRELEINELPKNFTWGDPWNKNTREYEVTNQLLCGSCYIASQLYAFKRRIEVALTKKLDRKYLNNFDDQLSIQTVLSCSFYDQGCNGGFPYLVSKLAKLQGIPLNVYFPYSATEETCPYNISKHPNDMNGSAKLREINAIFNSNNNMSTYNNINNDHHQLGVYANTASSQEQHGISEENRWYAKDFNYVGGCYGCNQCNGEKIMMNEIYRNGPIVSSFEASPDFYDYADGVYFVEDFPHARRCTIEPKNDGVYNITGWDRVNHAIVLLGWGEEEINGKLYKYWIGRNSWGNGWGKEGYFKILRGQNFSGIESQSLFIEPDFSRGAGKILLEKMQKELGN
As to `COc1ccc(CCN2CC(C(=O)NCc3ccc(F)cc3)CC2=O)cc1OC` (centres unmarked), the “% Inhibition @ 10 uM” value is 1.62%.

As for `CCO/C(O)=C1\C(C)=Nc2nc(-c3ccccc3OC)nn2C1c1ccc(Cl)cc1` (centres unmarked), the “% Inhibition @ 10 uM” value is -0.125%.

In the case of `Cc1[nH]c2ccccc2c1CCNS(=O)(=O)c1ccc(F)cc1`, the “% Inhibition @ 10 uM” value was -3.04%.

On to `Cc1cc(C(=O)C(=O)Nc2nnc(-c3ccco3)s2)c(C)n1-c1ccc(Cl)cc1`, for which the “% Inhibition @ 10 uM” value was -1.06%.

Regarding `O=C1CC(c2ccc(C(F)(F)F)cc2)C2=C(CC(c3ccccc3Cl)CC2=O)N1` (centres unmarked), the “% Inhibition @ 10 uM” value is -4.81%.

For the molecule `CC(C)C[C@H](NC(=O)N1CCN(CCc2ccccc2)CC1)C(=O)NCC#N`, the “% Inhibition @ 10 uM” value was -3.48%.

On to `CCOC(=O)c1c(NC(=O)CN2CCCCC2)sc2c1CCCC2O` (centres unmarked), for which the “% Inhibition @ 10 uM” value came out at 4.33%.

Consider `COc1cc(OC)cc(C(=O)Nc2ccc3oc(-c4ccccc4F)nc3c2)c1`, for which the “% Inhibition @ 10 uM” value is 13.9%.

With `CCn1c2ccccc2c2nnc(NCCc3cc(OC)ccc3OC)nc21`, the “% Inhibition @ 10 uM” value worked out at 0.813%.

For the molecule `O=C1c2ccccc2C(=O)N1c1ccc(Cl)cn1`, the “% Inhibition @ 10 uM” value is reported as -2.32%.

`COc1ccc(S(=O)(=O)c2cc(NC(=O)c3ccccc3)c(C)c(C)c2O)cc1`: the “% Inhibition @ 10 uM” value is recorded as -1.95%.

As to `CCCSc1ncc(Cl)c(C(=O)Nc2sc(C(C)=O)c(C)c2C(=O)OC)n1`, the “% Inhibition @ 10 uM” value is -2.21%.

For `CCCNC(=O)c1cc2nc(-c3cccs3)cc(C(F)(F)F)n2n1`, the “% Inhibition @ 10 uM” value is reported as -3.26%.

Regarding `O=C(NCc1ccccc1Cl)C1CCC(CNS(=O)(=O)c2cccc3cccnc23)CC1` (centres unmarked), the “% Inhibition @ 10 uM” value amounted to 0.981%.

Turning to `COc1ccc(CN2CCN(Cc3ccc(C(F)(F)F)cc3)CC2)cc1OC`, the “% Inhibition @ 10 uM” value is -1.49%.

For the molecule `CCOC(=O)C1=C(Cn2cncn2)NC(=O)NC1c1ccc2c(c1)OCO2` (centres unmarked), the “% Inhibition @ 10 uM” value was -0.0678%.

In the case of `CCc1c(-c2nnc(S)n2CC)csc1C`, the “% Inhibition @ 10 uM” value is recorded as 3.94%.

Take `COc1ccccc1OCc1nc(C#N)c(N2CCOCC2)o1`: the “% Inhibition @ 10 uM” value is -4.62%.

In the case of `NC(=O)c1ccc(NC(=O)CSCc2ccccc2Br)cc1`, the “% Inhibition @ 10 uM” value is -0.99%.

For `O=C(CN1C(=O)c2ccccc2C1=O)Nc1ccccc1Oc1ccccc1`, the “% Inhibition @ 10 uM” value is given as -1.02%.

Regarding `CCNC(=O)c1cc2c(=O)n3cc(C)ccc3nc2n(C(C)CC)c1=N` (centres unmarked), the “% Inhibition @ 10 uM” value is on record as -7.08%.

On to `NC(=O)C1CCN(C(=O)c2ccc3nc(-c4ccccc4)c(-c4ccccc4)nc3c2)CC1`, for which the “% Inhibition @ 10 uM” value is on record as 8.35%.

Regarding `Clc1ccccc1CN1CCN(c2ccccn2)CC1`, the “% Inhibition @ 10 uM” value was 1.4%.

As for `Cc1ccc(Cl)cc1N1CCN(C(=O)CN(C2CCCCC2)S(C)(=O)=O)CC1`, the “% Inhibition @ 10 uM” value is 1.94%.

For `CC(NC(=O)[C@H](Cc1ccccc1)N1Cc2ccccc2C1=O)c1cccs1` (some centres unmarked), the “% Inhibition @ 10 uM” value is reported as -2.25%.

Consider `C=CCSc1ncc(Cl)c(C(=O)NCc2ccc3c(c2)OCO3)n1`, for which the “% Inhibition @ 10 uM” value is recorded as 0.758%.

As to `O=C(O)c1ccccc1C(=O)Nc1cccc(Cl)c1Cl`, the “% Inhibition @ 10 uM” value is -1.95%.

For the molecule `CN1CCN(C(=O)CN(Cc2ccc(Br)cc2)S(=O)(=O)c2ccccc2)CC1`, the “% Inhibition @ 10 uM” value amounted to 0.408%.

As to `COC(=O)c1cc2ccsc2n1CC(=O)N(C)C1CCCCC1`, the “% Inhibition @ 10 uM” value is -13.9%.

Take `N#Cc1c(O)nc(SCc2nc(N)nc(N3CCCCC3)n2)nc1-c1ccccc1`: the “% Inhibition @ 10 uM” value was -0.105%.

With `CCC1C(c2ccccc2)NC(c2ccccc2)CC1(O)Cc1ccccc1` (centres unmarked), the “% Inhibition @ 10 uM” value is listed as -1.56%.

On to `CC1CCC(N2CCC(C(N)=O)CC2)C1` (centres unmarked), for which the “% Inhibition @ 10 uM” value is -4.75%.

Take `O=C(NCc1ccccc1)c1cccc2c3c([nH]c12)C(C(=O)O)CCC3` (centres unmarked): the “% Inhibition @ 10 uM” value is on record as 2.13%.

Take `CN(CCNC(=O)C1c2ccccc2C(=O)N(C)C1c1cn(C)c2ccccc12)Cc1ccccc1` (centres unmarked): the “% Inhibition @ 10 uM” value worked out at 3.5%.

In the case of `O=C1NC(=O)N(Cc2ccccc2)C(=O)/C1=C\c1ccc(SCc2ccc(Cl)cc2)o1`, the “% Inhibition @ 10 uM” value is reported as -5.25%.

Take `Cc1cccc(-n2c(C)nc3ccsc3c2=O)c1`: the “% Inhibition @ 10 uM” value was -1.12%.

With `Cc1sc(C)c(CNC(C)C)c1CNC(C)C`, the “% Inhibition @ 10 uM” value is -1.29%.

Turning to `CC(C)n1c(N(C)C)nc2c1c(=O)[nH]c(=O)n2C`, the “% Inhibition @ 10 uM” value is recorded as -0.13%.

As for `Cc1ccc2c(c1)c1c(n2C)/C(=N/NC(N)=S)CCC1`, the “% Inhibition @ 10 uM” value is recorded as -4.84%.

As for `CCOC(=O)c1c(N)n(-c2ccc(C)cc2)c2nc3ccccc3nc12`, the “% Inhibition @ 10 uM” value amounted to 4.73%.

For the molecule `O=C(CN1C(=O)S/C(=C\c2ccc(O)cc2)C1=O)N1CCOCC1`, the “% Inhibition @ 10 uM” value came to 1.52%.

Consider `CCN(c1ccccc1)S(=O)(=O)c1ccc(NC(=O)COc2ccccc2C)cc1`, for which the “% Inhibition @ 10 uM” value is given as -9.02%.

As for `CCNC(=O)C1=C2c3ccccc3CC(C)(C)N2C(=O)C1=O`, the “% Inhibition @ 10 uM” value amounted to 3.57%.

With `Cc1ccc(-c2nc(-c3cc4ccc(O)cc4oc3=O)cs2)c(C)c1`, the “% Inhibition @ 10 uM” value is listed as 0.815%.

Regarding `COc1ccc(S(=O)(=O)/C=C/c2ccccc2)cc1`, the “% Inhibition @ 10 uM” value is -4.08%.

Consider `O=C1NC(=O)c2cc(S(=O)(=O)NCCCO)cc3cccc1c23`, for which the “% Inhibition @ 10 uM” value is 1.74%.

Consider `COc1cc(OC)cc(C(=O)N2CCN(Cc3cccc4ccccc34)CC2)c1`, for which the “% Inhibition @ 10 uM” value is reported as -0.795%.

As for `CCOc1cccc(-c2cc(C(=O)O)c3cc(Br)ccc3n2)c1`, the “% Inhibition @ 10 uM” value is 5.31%.

With `CCOc1cc(C2C(C(=O)OC)=C(C)N=C3C2=C(O)c2ccccc23)c(Br)cc1O` (centres unmarked), the “% Inhibition @ 10 uM” value was 6.08%.

For `N#Cc1ccccc1NC(=O)c1ccc([N+](=O)[O-])cc1`, the “% Inhibition @ 10 uM” value is -9.41%.

As for `COc1ccc(-c2c3c(nc4sc(C(C)=O)c(N)c24)C(=O)c2ccccc2-3)cc1`, the “% Inhibition @ 10 uM” value is -2.87%.

Turning to `N=C1/C(=C\c2ccc(SCc3ccccc3)o2)C(=O)N=C2SC(CC(=O)N3CCOCC3)=NN12`, the “% Inhibition @ 10 uM” value was determined as 1.62%.

On to `Nc1nc(Cn2c(-c3nonc3N)nc3ccccc32)nc(N2CCCCC2)n1`, for which the “% Inhibition @ 10 uM” value came out at 8.38%.

For `Cc1cccc2c(C(=O)O)cc(-c3ccccc3)nc12`, the “% Inhibition @ 10 uM” value was -1.74%.

With `COc1ccc(O)c(CN2CCCC(C)C2)c1` (centres unmarked), the “% Inhibition @ 10 uM” value is reported as -1.78%.

For `O=C(O)c1cccc([N+](=O)[O-])c1C(=O)N1CCN(C(=O)c2ccco2)CC1`, the “% Inhibition @ 10 uM” value is given as -1.76%.

Take `CCOc1ccc(CNCc2c(C(=O)O)n(Cc3ccc(C)cc3)c3cc(OC)ccc23)cc1OC`: the “% Inhibition @ 10 uM” value is 0.436%.

Consider `O=C(NCCCN1CCC(Cc2ccccc2)CC1)c1nnc(Cc2ccc(Cl)cc2Cl)o1`, for which the “% Inhibition @ 10 uM” value was 7.64%.

On to `Cc1ccc(C(C)NC(=O)c2ccccc2)cc1` (centres unmarked), for which the “% Inhibition @ 10 uM” value is -5.11%.

`Cc1ccc(N(Cc2ccc(F)cc2)C(=O)c2ccc([N+](=O)[O-])cc2)cc1`: the “% Inhibition @ 10 uM” value is -1.8%.

With `Cc1cc2nc(COc3ccccc3)cc(=O)n2o1`, the “% Inhibition @ 10 uM” value is recorded as -0.495%.

Consider `CCOC(=O)C1CCCN(C/C(C)=C/c2ccccc2)C1` (centres unmarked), for which the “% Inhibition @ 10 uM” value is on record as -0.292%.
